This is an account of results in publication PMC4336329 (PLoS ONE, 2015).

In all, about 310,000 compounds went through this assay and about 2,200 (0.71%) showed an effect of 50% or more. The effect is printed as a negative number. The list shows a part of the results.

Sequence of human ether-à-go-go-related gene (hERG) potassium channel (Q12809 whole entry, looked up): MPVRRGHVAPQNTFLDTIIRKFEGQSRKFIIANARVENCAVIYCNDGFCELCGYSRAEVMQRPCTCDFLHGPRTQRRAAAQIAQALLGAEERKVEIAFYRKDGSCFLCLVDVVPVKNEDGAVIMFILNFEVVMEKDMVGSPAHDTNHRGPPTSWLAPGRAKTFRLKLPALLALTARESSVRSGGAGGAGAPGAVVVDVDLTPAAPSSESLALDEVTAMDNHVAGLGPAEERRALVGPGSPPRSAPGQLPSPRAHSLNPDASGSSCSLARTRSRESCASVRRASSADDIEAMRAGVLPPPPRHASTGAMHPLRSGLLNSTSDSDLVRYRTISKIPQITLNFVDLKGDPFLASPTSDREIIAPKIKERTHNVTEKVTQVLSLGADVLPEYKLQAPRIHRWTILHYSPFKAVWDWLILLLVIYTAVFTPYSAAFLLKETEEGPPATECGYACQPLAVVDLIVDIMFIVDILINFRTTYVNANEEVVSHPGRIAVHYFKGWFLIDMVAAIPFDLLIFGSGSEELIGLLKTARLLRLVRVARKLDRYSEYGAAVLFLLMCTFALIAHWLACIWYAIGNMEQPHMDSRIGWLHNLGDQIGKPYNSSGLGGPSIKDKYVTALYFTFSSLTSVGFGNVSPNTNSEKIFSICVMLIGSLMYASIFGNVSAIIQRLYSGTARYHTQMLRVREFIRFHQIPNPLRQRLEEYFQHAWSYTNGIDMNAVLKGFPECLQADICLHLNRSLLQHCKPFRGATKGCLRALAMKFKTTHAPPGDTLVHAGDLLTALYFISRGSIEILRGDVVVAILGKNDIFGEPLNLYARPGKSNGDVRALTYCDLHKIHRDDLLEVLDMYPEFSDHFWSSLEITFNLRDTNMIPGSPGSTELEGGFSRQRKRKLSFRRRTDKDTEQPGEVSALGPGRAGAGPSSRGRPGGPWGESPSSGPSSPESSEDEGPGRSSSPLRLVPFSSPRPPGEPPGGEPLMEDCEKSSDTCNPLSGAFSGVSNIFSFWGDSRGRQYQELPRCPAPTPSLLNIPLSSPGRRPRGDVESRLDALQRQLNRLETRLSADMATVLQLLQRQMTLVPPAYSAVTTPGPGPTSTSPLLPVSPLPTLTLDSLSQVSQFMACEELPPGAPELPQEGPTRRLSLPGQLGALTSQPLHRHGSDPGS

This assay has as its target human ether-à-go-go-related gene (hERG) potassium channel (human, UniProt Q12809). In words: primary screen, population patch clamp on CHO cells stably expressing hERG.
For the compound `Cc1ccc(S(=O)(=O)NCCC(c2ccccc2)c2ccccc2)cc1C(=O)O`, the “hERG current change (%, negative = inhibition) at 1uM” value amounted to 7.67%.

With `COc1ccc(Oc2ccc(N/C=C3/CCCC3=O)cc2)cc1`, the “hERG current change (%, negative = inhibition) at 1uM” value is 0.127%.

In the case of `Cc1cc(C)n2nc(CC(=O)NC3CCCCCC3)nc2n1`, the “hERG current change (%, negative = inhibition) at 1uM” value is 11.5%.

For `CC(C)c1cc(CNC(=O)CCc2nnc(CCCc3ccccc3)o2)on1`, the “hERG current change (%, negative = inhibition) at 1uM” value was 9.8%.

As to `N#CCC(=O)Nc1ccc(C(=O)OCC(=O)N(Cc2ccccc2)C2CCS(=O)(=O)C2)cc1` (stereo not shown), the “hERG current change (%, negative = inhibition) at 1uM” value stood at 16%.

As to `Cc1cc(C(=O)N2CCCC(CNS(=O)(=O)c3cccs3)C2)nn1C` (stereo not shown), the “hERG current change (%, negative = inhibition) at 1uM” value was determined as 2.28%.

Turning to `O=C(CN1C(=O)C(=O)N(C2CCCC2)C1=O)Nc1ccc(N2CCOCC2)cc1`, the “hERG current change (%, negative = inhibition) at 1uM” value is recorded as 7.71%.

`COCCNC(=O)C(c1ccc(C)cc1)N(C(=O)CCC(=O)Nc1ccccn1)c1ccc(F)cc1` (stereo not shown): the “hERG current change (%, negative = inhibition) at 1uM” value is recorded as 4.28%.

Take `Cc1cccc2cc(C#N)c(N3CCCC3)nc12`: the “hERG current change (%, negative = inhibition) at 1uM” value stood at 13.2%.

As for `CCOc1ccc(NC(=S)NCCCN2CCOCC2)cc1`, the “hERG current change (%, negative = inhibition) at 1uM” value turned out to be 9%.

Take `CCOC(=O)N1CCC(NC(=O)C2CCC(Cn3c(=O)[nH]c4ccccc4c3=O)CC2)CC1` (stereo not shown): the “hERG current change (%, negative = inhibition) at 1uM” value is on record as 1.61%.

Take `O=C(NNC1CC(=O)N(c2ccc(Br)cc2)C1=O)c1ccccn1` (stereo not shown): the “hERG current change (%, negative = inhibition) at 1uM” value came to 7.26%.

Consider `CCc1ccn2cc(-c3ccc4c(c3)OCO4)nc2c1`, for which the “hERG current change (%, negative = inhibition) at 1uM” value is 9.29%.

In the case of `O=C(Cn1nnc(-c2cccs2)n1)OC1CCCCC1`, the “hERG current change (%, negative = inhibition) at 1uM” value was determined as 7.88%.

Turning to `O=C(COc1cccc2ccccc12)NNC(=O)c1cccs1`, the “hERG current change (%, negative = inhibition) at 1uM” value amounted to 8.8%.

Consider `CCc1ccc(OCC(=O)N2CCN(c3ccccc3F)CC2)cc1`, for which the “hERG current change (%, negative = inhibition) at 1uM” value was 18.5%.

As for `COc1ccc(Cc2noc(CN3CCN(C4CCc5ccccc5C4)CC3)n2)cc1OC` (stereo not shown), the “hERG current change (%, negative = inhibition) at 1uM” value was -32%.

Turning to `COc1ccc(-n2nc(C(=O)NCC(=O)N3CCCCCC3)c3ccccc3c2=O)cc1Cl`, the “hERG current change (%, negative = inhibition) at 1uM” value turned out to be 6.12%.

As to `CCOC(=O)C1CCN(S(=O)(=O)c2ccc3c(c2)N(C(C)=O)CCO3)CC1`, the “hERG current change (%, negative = inhibition) at 1uM” value is reported as -31.2%.

With `Cc1ccnc(NC(=O)CCC(=O)N(CC(=O)NC(C)(C)C)c2ccc(F)c(Cl)c2)c1`, the “hERG current change (%, negative = inhibition) at 1uM” value is listed as 16%.

For the compound `CC1(C)CC(NC(=O)C2CCN(S(=O)(=O)c3ccc(F)cc3)CC2)CC(C)(C)N1`, the “hERG current change (%, negative = inhibition) at 1uM” value is given as 16.9%.

Consider `O=Cc1cn(CC(=O)N2CCCc3ccccc32)c2ccccc12`, for which the “hERG current change (%, negative = inhibition) at 1uM” value came out at 17.3%.

For the compound `CCCN(CC(=O)Nc1ccc(C(N)=O)cc1)CC(=O)Nc1ccc(Cl)cc1Cl`, the “hERG current change (%, negative = inhibition) at 1uM” value is on record as 3.6%.

As to `CN(C)C(CNc1ccc(C(N)=O)cc1[N+](=O)[O-])c1ccccc1` (stereo not shown), the “hERG current change (%, negative = inhibition) at 1uM” value was found to be 6.92%.

On to `N#CCn1nnc(-c2ccc3c(c2)OCO3)n1`, for which the “hERG current change (%, negative = inhibition) at 1uM” value turned out to be 6.15%.

In the case of `CCOc1cc(NC(=O)C2CCCO2)c(OCC)cc1NC(C)=O` (stereo not shown), the “hERG current change (%, negative = inhibition) at 1uM” value stood at 14.2%.

For `CCOC(=O)c1sc(N(Cc2ccccc2)C(=O)CSc2nnc(C3CC3)n2N)nc1C`, the “hERG current change (%, negative = inhibition) at 1uM” value is reported as -5.91%.

For the compound `Cc1ccc(C(=O)N/C(=C\c2ccco2)C(=O)NCCN2CCOCC2)cc1`, the “hERG current change (%, negative = inhibition) at 1uM” value worked out at 5.85%.

In the case of `CCC(C(=O)NCCN1CCN(C)CC1)n1c(C)c2cnn(-c3ccccc3)c(=O)c2c1C` (stereo not shown), the “hERG current change (%, negative = inhibition) at 1uM” value turned out to be 2.64%.

Turning to `O=C(COc1cc(=O)n2c(n1)SCCC2)c1ccccc1`, the “hERG current change (%, negative = inhibition) at 1uM” value was -1.27%.

As to `CCOCCc1nnc(N)s1`, the “hERG current change (%, negative = inhibition) at 1uM” value is 8.55%.

For the compound `O=C(c1ccc(Cl)cc1)c1cnc(Nc2ccccc2Cl)s1`, the “hERG current change (%, negative = inhibition) at 1uM” value was 1.51%.

On to `CCCCc1cc(=O)oc2cc(O)cc(O)c12`, for which the “hERG current change (%, negative = inhibition) at 1uM” value is 8.24%.

Regarding `O=C(CN1C(=O)NC2(CCCC2)C1=O)NNC(=O)c1ccccc1F`, the “hERG current change (%, negative = inhibition) at 1uM” value is given as 18.3%.

`O=C(O)c1cc2nc3c(c(C(F)(F)F)n2n1)CCCC3`: the “hERG current change (%, negative = inhibition) at 1uM” value was found to be 16.1%.

Regarding `CCc1noc(C)c1C(=O)N1CCCC(C(=O)c2cc(F)ccc2OC)C1` (stereo not shown), the “hERG current change (%, negative = inhibition) at 1uM” value came out at 9.19%.

In the case of `NC(=O)Cn1c(=O)n(CCc2ccccc2)c(=O)c2c3c(sc21)CCCC3`, the “hERG current change (%, negative = inhibition) at 1uM” value is -13%.

In the case of `O=C(Nc1ccccc1N1CCCC1)C1CCN(S(=O)(=O)c2ccc(F)cc2)CC1`, the “hERG current change (%, negative = inhibition) at 1uM” value worked out at 11.5%.

With `O=C(NC(Cc1ccccc1)C(=O)N1CCN(S(=O)(=O)c2ccccc2)CC1)c1ccccc1` (stereo not shown), the “hERG current change (%, negative = inhibition) at 1uM” value came out at 0.385%.

As for `CSc1cccc(NC(=O)C2CCN(S(=O)(=O)c3ccc(F)cc3)CC2)c1`, the “hERG current change (%, negative = inhibition) at 1uM” value was found to be 6.66%.

With `C=C1CC[C@@]23CC[C@]4(C)[C@@](OC2=O)([C@@H]3C1)[C@H]1O[C@H]1C1[C@@]2(C)CC[C@H](O)C(C)(C)C2CC[C@]14C` (stereo partly shown), the “hERG current change (%, negative = inhibition) at 1uM” value is 3.47%.

`NS(=O)(=O)c1ccc(CCNC(=O)COC(=O)c2cc([N+](=O)[O-])ccc2N2CCOCC2)cc1`: the “hERG current change (%, negative = inhibition) at 1uM” value is on record as 17.3%.

Turning to `CN1C(=S)NC(C)(C)CC1(C)c1ccc(O)cc1O` (stereo not shown), the “hERG current change (%, negative = inhibition) at 1uM” value was 14.5%.

Consider `CN(C)NC(=O)c1ccsc1NC(=O)c1ccc(S(=O)(=O)N(C)C)cc1`, for which the “hERG current change (%, negative = inhibition) at 1uM” value is reported as 2.87%.

On to `CN1C(=O)C(C)(C)c2cc(S(=O)(=O)N3CCCC(C(=O)NCc4ccc(Cl)cc4)C3)ccc21` (stereo not shown), for which the “hERG current change (%, negative = inhibition) at 1uM” value was 5.86%.

In the case of `O=C(Cn1nnc(-c2ccc(Cl)cc2)n1)NCc1ccco1`, the “hERG current change (%, negative = inhibition) at 1uM” value was 11%.

With `S=C(NCc1ccco1)Nc1ccccc1Cl`, the “hERG current change (%, negative = inhibition) at 1uM” value is -0.927%.

Take `COc1ccc(OC)c(C2/C(=C(/O)c3cnn(-c4ccccc4)c3C)C(=O)C(=O)N2CCN(C)C)c1` (stereo not shown): the “hERG current change (%, negative = inhibition) at 1uM” value was determined as 15%.

`CCn1c(=O)cc(O)c2c(=O)n(C)c(=O)n(C)c21`: the “hERG current change (%, negative = inhibition) at 1uM” value was found to be 10.1%.

Consider `Cc1ccc(C)c(-n2c(Cc3cc(=O)[nH]c(=O)[nH]3)nnc2SC(C)C)c1`, for which the “hERG current change (%, negative = inhibition) at 1uM” value was 5.78%.

On to `COc1ccc(OC)c(NC(=O)CCn2cccc2)c1`, for which the “hERG current change (%, negative = inhibition) at 1uM” value worked out at 7.06%.

Turning to `Cc1noc(C)c1S(=O)(=O)N1CCC(C(=O)N2CCN(Cc3ccc4c(c3)OCO4)CC2)CC1`, the “hERG current change (%, negative = inhibition) at 1uM” value is reported as 4.13%.

For `O=C1NCCN1Cc1ccccc1F`, the “hERG current change (%, negative = inhibition) at 1uM” value is given as 7.03%.

Take `O=C(c1ccco1)N1N=C(c2ccncc2)CC1(O)C(F)(F)F` (stereo not shown): the “hERG current change (%, negative = inhibition) at 1uM” value was -2.1%.

`CC(C)(C)NC(=O)N1CCn2cccc2C1c1ccccc1F` (stereo not shown): the “hERG current change (%, negative = inhibition) at 1uM” value was 12.8%.
